This is an account of results in PubChem BioAssay AID1346428 (National Center for Advancing Translational Sciences (NCATS), 2018).

Structures are written as SMILES. The whole screen tested about 48,000 compounds, of which about 1,200 (2.5%) were called active. Not shown: some 2% with an inconclusive outcome.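 Rule for the calls: active = activation of at least 60% and not above a set upper limit (about 1 call in 100 departs from these limits); inconclusive = activation of 40% to 60%, or above that upper limit; inactive = activation under 40%.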 The list shows a part of the results.

In the test the target is Probable G-protein coupled receptor 32 (Homo sapiens) (UniProt O75388). The experiment in a line: qHTS for Agonists of Human Resolvin D1 Receptor DRV1. Note: 0% is about no effect. The note with it: CHO-K1 GPR32 beta-arrestin PathHunter luminescence, 90 min; at 76.9 µM; hits give high values; zero percent set by DMSO-only wells. The gist of the method: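 Agonism was scored by beta-Gal fragment complementation (chemiluminescent read, 1 h detection at ambient temperature) reporting beta-arrestin binding to GPR32 in engineered CHO-K1 cells. Compound treatment lasted 90 min at 37 C, normalized to a DMSO basal control.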
Chain of UniProt O75388 (O75388 whole entry, looked up, the tested form may be a part): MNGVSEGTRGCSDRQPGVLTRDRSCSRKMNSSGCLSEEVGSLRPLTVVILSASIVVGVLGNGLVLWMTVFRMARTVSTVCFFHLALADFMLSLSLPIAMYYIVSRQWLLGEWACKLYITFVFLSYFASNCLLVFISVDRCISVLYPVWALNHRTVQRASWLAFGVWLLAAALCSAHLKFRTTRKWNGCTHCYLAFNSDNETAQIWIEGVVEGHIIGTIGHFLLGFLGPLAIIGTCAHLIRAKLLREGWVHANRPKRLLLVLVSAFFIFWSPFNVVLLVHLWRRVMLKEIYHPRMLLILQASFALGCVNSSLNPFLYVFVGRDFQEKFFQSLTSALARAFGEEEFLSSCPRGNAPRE
In the case of `CC(CNC(=O)Cn1ccc2cc(S(=O)(=O)N3CCCCCC3)ccc21)c1ccccc1` (stereo not drawn), the activation is inactive: -0.678%. Regarding `COc1ccc(Cl)cc1NC(=O)CN(C)S(=O)(=O)c1ccc2c(c1)CCCN2C(C)=O`, the activation is inactive: 18.9%.

Consider `CCOC(=O)c1ccc(N2CCN(c3cccc(Cl)c3)CC2)c(NC(=O)Nc2ccc(OC)cc2OC)c1`, for which the activation is inactive: -24.8%. For `CCc1ccc(-c2nc(CN3CCCC(C(=O)N4CCN(c5cc(Cl)ccc5C)CC4)C3)c(C)o2)cc1` (stereo not drawn) the value was inactive: -5.86%. In the case of `COc1ccc(-c2onc(C)c2C)cc1S(=O)(=O)NCC1CCN(Cc2ccccc2F)CC1`, the activation is inactive: 0.724%. The figure for `CCOC(=O)CSc1nc2ccccc2c(=O)n1CCc1ccc(OC)c(OC)c1` is inactive: -0.0625%.

Consider `CCC1CN(C(=O)N2CCC(C(=O)NCCN(CC)CC)CC2)c2ccccc2O1` (stereo not drawn), for which the activation is inactive: -4.28%. Take `Cc1cccc(-n2c(=O)c3c(c4cc(C)ccc4n3C)n(CC(=O)NCCC3=CCCCC3)c2=O)c1`: the activation was inactive: 0.416%. For `COc1ccc(-c2noc(-c3cccnc3NCc3ccco3)n2)cc1` the value was inactive: -9.4%; for `CCCN1C(=O)C(O)(CC(=O)c2ccc(CC)cc2)c2ccccc21` (stereo not drawn), inactive: -12.9%; for `CCc1cccc(C)c1NC(=O)CSc1nc(C)cc(C)c1C(=O)Nc1ccccc1`, inactive: -23.1%. The figure for `Cc1ccc(Oc2c(C(F)(F)F)oc3cc(OCC(=O)NC4CCCCC4)ccc3c2=O)cc1` is inactive: 1.74%; for `COc1cccc(-n2cc(C(=O)NCc3ccccc3OC)c3ccccc3c2=O)c1` it is inactive: -12.6%; for `COc1ccc(-c2nc(CN3CCC(C(=O)NCCCOC(C)C)CC3)c(C)o2)cc1OC` it is inactive: -15.6%.

As for `Cc1ccccc1Cn1c(=O)n(CCc2ccccc2)c(=O)c2c(C)c(C)sc21`, the activation is inactive: 5.77%. With `COc1cccc(OCCSc2nc3ccccc3n2CC(=O)N2CCCCC2)c1`, the activation was inactive: 0.478%. On to `COC(=O)c1cc(S(=O)(=O)NCC2CCN(Cc3cccc(F)c3)CC2)c[nH]1`, for which the activation was inactive: -22.2%. For `CCc1cc2c(cc3c(=O)n(CC(=O)NCCc4ccc(OC)c(OC)c4)ncn32)s1` the value was inactive: 1.57%; for `COc1ccc(OC)c(C2N=C(N)Nc3nc4ccccc4n32)c1` (stereo not drawn), inactive: 35.2%. For `COc1cc(OC)c(C2Nc3ccccc3-c3nnc(SCc4ccccc4)nc3O2)cc1OC` (stereo not drawn), the activation is active: 64.1%. As to `COC(=O)CSc1nc(-c2ccc(F)cc2)cc(C(F)(F)F)n1`, the activation was inactive: -5.46%. The figure for `O=C(CCn1ccc2cc(S(=O)(=O)N3CCCC3)ccc21)NCc1cccc(F)c1` is inactive: -0.212%; for `Cc1cccc(C)c1-n1ncc(C(=O)NCCN2CCOCC2)c1C1CCN(C(=O)OC(C)(C)C)CC1` it is inactive: -6.74%.
